# In the supplement of paper PMC8728848:
# The other results are listed elsewhere or left out.
# B1: CLECb-Precomplexed (Mus musculus), P43025 (protein)
# chain: MAKNGLVLCILVVSLLLDQTDGYPSRMKARKHSKRRVKAKDDDLKSQVEKLWREVNALKEMQALQTVCLRGTKVHKKCYLASEGLKHYHEANEDCISKGGTLVVPRNSDEINALRDYGKRSLPGVNDFWLGINDMVTEGKFLDVHGFAVSFLNWDRAQPSGGKRENCVLFSQSAQGKWSDEACRSSKRYICEFIIPTRTRPLEQKLISEEDLAANDILDYKDDDDKV
# What was measured:
# Test in all cases: glycan array binding signal (z-score within array); higher = stronger binding
# Settings in all cases: glycan notation: IUPAC condensed, linker removed
# [1] = biological target: Fuc(a1-2)Gal(b1-4)[Fuc(a1-3)]GlcNAc
# Method in brief: (§1)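 The binding signal is a Z-score computed within each array and averaged over linkers. Arrays of the same protein sequence at different concentrations or buffers were also averaged together. Data originate from 3228 arrays in the Consortium for Functional Glycomics database, kept only where the protein sequence was available.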
# [2] = biological target: Fuc(a1-2)Gal(b1-4)[Fuc(a1-3)]GlcNAc(b1-2)Man(a1-3)[Fuc(a1-2)Gal(b1-4)[Fuc(a1-3)]GlcNAc(b1-2)Man(a1-6)]Man(b1-4)GlcNAc(b1-4)[Fuc(a1-6)]GlcNAc
# Method in brief: as §1
# [3] = biological target: Fuc(a1-2)Gal(b1-4)[Fuc(a1-3)]GlcNAc(b1-2)[Fuc(a1-2)Gal(b1-4)[Fuc(a1-3)]GlcNAc(b1-4)]Man(a1-3)[Fuc(a1-2)Gal(b1-4)[Fuc(a1-3)]GlcNAc(b1-2)Man(a1-6)]Man(b1-4)GlcNAc(b1-4)GlcNAc
# Method in brief: as §1
# [4] = biological target: Fuc(a1-2)Gal(b1-4)[Fuc(a1-3)]GlcNAc(b1-3)Gal(b1-4)[Fuc(a1-3)]GlcNAc
# Method in brief: as §1
# [5] = biological target: Fuc(a1-2)Gal(b1-4)[Fuc(a1-3)]GlcNAc(b1-3)Gal(b1-4)[Fuc(a1-3)]GlcNAc(b1-3)Gal(b1-4)[Fuc(a1-3)]GlcNAc
# Method in brief: as §1
# [6] = biological target: Fuc(a1-2)Gal(b1-4)[Fuc(a1-3)]GlcNAc(b1-3)GalNAc
# Method in brief: as §1
# [7] = biological target: Fuc(a1-2)Gal(b1-4)[Fuc(a1-3)]GlcNAc(b1-3)[Neu5Ac(a2-6)Gal(b1-4)GlcNAc(b1-6)]Gal(b1-4)Glc
# Method in brief: as §1
# [8] = biological target: Fuc(a1-2)Gal3S(b1-4)GlcNAc
# Method in brief: as §1
# [9] = biological target: Fuc(a1-2)Gal6S(b1-3)GlcNAc
# Method in brief: as §1
# [10] = biological target: Fuc(a1-2)Gal6S(b1-3)GlcNAc6S
# Method in brief: as §1
# Fuc(a1-2)Gal6S(b1-4)Glc = biological target: Fuc(a1-2)Gal6S(b1-4)Glc
# Method in brief: as §1
# [11] = biological target: Fuc(a1-2)Gal6S(b1-4)Glc6S
# Method in brief: as §1
# Fuc(a1-2)[Gal(a1-3)]Gal = biological target: Fuc(a1-2)[Gal(a1-3)]Gal
# Method in brief: as §1
# [12] = biological target: Fuc(a1-2)[Gal(a1-3)]Gal(b1-3)GalNAc
# Method in brief: as §1
# [13] = biological target: Fuc(a1-2)[Gal(a1-3)]Gal(b1-3)GalNAc(b1-3)Gal(a1-4)Gal(b1-4)Glc
# Method in brief: as §1
# [14] = biological target: Fuc(a1-2)[Gal(a1-3)]Gal(b1-3)GlcNAc
# Method in brief: as §1
# [15] = biological target: Fuc(a1-2)[Gal(a1-3)]Gal(b1-3)GlcNAc(b1-2)Man(a1-3)[Fuc(a1-2)[Gal(a1-3)]Gal(b1-3)GlcNAc(b1-2)Man(a1-6)]Man(b1-4)GlcNAc(b1-4)GlcNAc
# Method in brief: as §1
# [16] = biological target: Fuc(a1-2)[Gal(a1-3)]Gal(b1-3)GlcNAc(b1-2)Man(a1-3)[Fuc(a1-2)[Gal(a1-3)]Gal(b1-3)GlcNAc(b1-2)Man(a1-6)]Man(b1-4)GlcNAc(b1-4)[Fuc(a1-6)]GlcNAc
# Method in brief: as §1
# [17] = biological target: Fuc(a1-2)[Gal(a1-3)]Gal(b1-3)GlcNAc(b1-3)GalNAc
# Method in brief: as §1
# [18] = biological target: Fuc(a1-2)[Gal(a1-3)]Gal(b1-3)GlcNAc(b1-6)GalNAc
# Method in brief: as §1
# [19] = biological target: Fuc(a1-2)[Gal(a1-3)]Gal(b1-4)Glc
# Method in brief: as §1
# [20] = biological target: Fuc(a1-2)[Gal(a1-3)]Gal(b1-4)GlcNAc
# Method in brief: as §1
# [21] = biological target: Fuc(a1-2)[Gal(a1-3)]Gal(b1-4)GlcNAc(b1-2)Man
# Method in brief: as §1
# [22] = biological target: Fuc(a1-2)[Gal(a1-3)]Gal(b1-4)GlcNAc(b1-2)Man(a1-3)[Fuc(a1-2)[Gal(a1-3)]Gal(b1-4)GlcNAc(b1-2)Man(a1-6)]Man(b1-4)GlcNAc(b1-4)GlcNAc
# Method in brief: as §1
# [23] = biological target: Fuc(a1-2)[Gal(a1-3)]Gal(b1-4)GlcNAc(b1-2)Man(a1-3)[Fuc(a1-2)[Gal(a1-3)]Gal(b1-4)GlcNAc(b1-2)Man(a1-6)]Man(b1-4)GlcNAc(b1-4)[Fuc(a1-6)]GlcNAc
# Method in brief: as §1
# [24] = biological target: Fuc(a1-2)[Gal(a1-3)]Gal(b1-4)GlcNAc(b1-3)GalNAc
# Method in brief: as §1
# [25] = biological target: Fuc(a1-2)[Gal(a1-3)]Gal(b1-4)GlcNAc(b1-6)GalNAc
# Method in brief: as §1
# [26] = biological target: Fuc(a1-2)[Gal(a1-3)]Gal(b1-4)[Fuc(a1-3)]Glc
# Method in brief: as §1
# [27] = biological target: Fuc(a1-2)[Gal(a1-3)]Gal(b1-4)[Fuc(a1-3)]GlcNAc
# Method in brief: as §1
# [28] = biological target: Fuc(a1-2)[Gal(a1-3)]Gal(b1-4)[Fuc(a1-3)]GlcNAc(b1-3)GalNAc
# Method in brief: as §1
# [29] = biological target: Fuc(a1-2)[Gal(a1-4)]Gal(b1-4)GlcNAc
# Method in brief: as §1
# [30] = biological target: Fuc(a1-2)[GalNAc(a1-3)]Gal
# Method in brief: as §1
# [31] = biological target: Fuc(a1-2)[GalNAc(a1-3)]Gal(b1-3)GalNAc(a1-3)[Fuc(a1-2)]Gal(b1-4)GlcNAc
# Method in brief: as §1
# [32] = biological target: Fuc(a1-2)[GalNAc(a1-3)]Gal(b1-3)GalNAc(b1-3)Gal(a1-4)Gal(b1-4)Glc
# Method in brief: as §1
# [33] = biological target: Fuc(a1-2)[GalNAc(a1-3)]Gal(b1-3)GlcNAc
# Method in brief: as §1
# [34] = biological target: Fuc(a1-2)[GalNAc(a1-3)]Gal(b1-3)GlcNAc(b1-2)Man(a1-3)[Fuc(a1-2)[GalNAc(a1-3)]Gal(b1-3)GlcNAc(b1-2)Man(a1-6)]Man(b1-4)GlcNAc(b1-4)GlcNAc
# Method in brief: as §1
# [35] = biological target: Fuc(a1-2)[GalNAc(a1-3)]Gal(b1-3)GlcNAc(b1-2)Man(a1-3)[Fuc(a1-2)[GalNAc(a1-3)]Gal(b1-3)GlcNAc(b1-2)Man(a1-6)]Man(b1-4)GlcNAc(b1-4)[Fuc(a1-6)]GlcNAc
# Method in brief: as §1
# [36] = biological target: Fuc(a1-2)[GalNAc(a1-3)]Gal(b1-3)GlcNAc(b1-3)GalNAc
# Method in brief: as §1
binder,measurement,setting,value
B1,glycan array binding signal (z-score),[1],-0.344
same,glycan array binding signal (z-score),[2],0.232
same,glycan array binding signal (z-score),[3],0.036
same,glycan array binding signal (z-score),[4],-0.289
same,glycan array binding signal (z-score),[5],0.457
same,glycan array binding signal (z-score),[6],1.86
same,glycan array binding signal (z-score),[7],-0.551
same,glycan array binding signal (z-score),[8],-0.364
same,glycan array binding signal (z-score),[9],-0.377
same,glycan array binding signal (z-score),[10],-0.075
same,glycan array binding signal (z-score),Fuc(a1-2)Gal6S(b1-4)Glc,-0.293
same,glycan array binding signal (z-score),[11],-0.244
same,glycan array binding signal (z-score),Fuc(a1-2)[Gal(a1-3)]Gal,0.033
same,glycan array binding signal (z-score),[12],-0.326
same,glycan array binding signal (z-score),[13],0.033
same,glycan array binding signal (z-score),[14],-0.221
same,glycan array binding signal (z-score),[15],0.234
same,glycan array binding signal (z-score),[16],-0.064
same,glycan array binding signal (z-score),[17],0.218
same,glycan array binding signal (z-score),[18],-0.196
same,glycan array binding signal (z-score),[19],-0.054
same,glycan array binding signal (z-score),[20],-0.552
same,glycan array binding signal (z-score),[21],-0.194
same,glycan array binding signal (z-score),[22],0.668
same,glycan array binding signal (z-score),[23],0.104
same,glycan array binding signal (z-score),[24],0.038
same,glycan array binding signal (z-score),[25],-0.136
same,glycan array binding signal (z-score),[26],-0.343
same,glycan array binding signal (z-score),[27],-0.084
same,glycan array binding signal (z-score),[28],-0.337
same,glycan array binding signal (z-score),[29],-0.343
same,glycan array binding signal (z-score),[30],-0.098
same,glycan array binding signal (z-score),[31],-0.347
same,glycan array binding signal (z-score),[32],0.034
same,glycan array binding signal (z-score),[33],0.136
same,glycan array binding signal (z-score),[34],0.101
same,glycan array binding signal (z-score),[35],-0.311
same,glycan array binding signal (z-score),[36],-0.149
